The supplement of paper PMC11741623
The list shows a part of the results. Interaction screen of human proteins with wild-type SARS-CoV-2 proteins by split-DHFR complementation in yeast, 1 µg/mL methotrexate. Value = fitness of the pair (three or more lineages) minus that of the viral protein without a human partner, on a scale set by negative (0) and fused positive (1) controls, mean of up to three cultures; higher = more likely to interact. Active = false discovery rate below 0.05 (one-sided t-test) in at least one culture. Nearly all pairs are not hits, and differences among them are mostly noise (correlation between cultures about 0.3); most hits were seen in one culture only. Human sequences are the Swiss-Prot entries looked up by gene name; the clone may be another isoform. NSP2 values were corrected by the authors for a growth advantage. Listed are human proteins with a hit and a random twelfth of the others.

How the values were obtained:
Assay in all cases: yeast fitness gain over the viral ORF with no human partner (scaled fitness); higher = more likely to interact
SARS-CoV-2 E = biological target: SARS-CoV-2 E
Method: (§1)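 Split mouse DHFR complementation in pooled diploid yeast: human ORFeome clones carry one fragment and viral ORFs the other; barcoded lineages compete in 1 µg/mL methotrexate and fitness is read by barcode sequencing in up to three cultures.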

SARS-CoV-2 M = biological target: SARS-CoV-2 M
Method: as §1

SARS-CoV-2 N = biological target: SARS-CoV-2 N
Method: as §1

SARS-CoV-2 NSP1 = biological target: SARS-CoV-2 NSP1
Method: as §1

SARS-CoV-2 NSP10 = biological target: SARS-CoV-2 NSP10
Method: as §1

SARS-CoV-2 NSP12 = biological target: SARS-CoV-2 NSP12
Method: as §1

SARS-CoV-2 NSP13 = biological target: SARS-CoV-2 NSP13
Method: as §1

SARS-CoV-2 NSP14 = biological target: SARS-CoV-2 NSP14
Method: as §1

SARS-CoV-2 NSP15 = biological target: SARS-CoV-2 NSP15
Method: as §1

SARS-CoV-2 NSP16 = biological target: SARS-CoV-2 NSP16
Method: as §1

SARS-CoV-2 NSP2 = biological target: SARS-CoV-2 NSP2
Method: as §1

SARS-CoV-2 NSP4 = biological target: SARS-CoV-2 NSP4
Method: as §1

SARS-CoV-2 NSP5 = biological target: SARS-CoV-2 NSP5
Method: as §1

SARS-CoV-2 NSP6 = biological target: SARS-CoV-2 NSP6
Method: as §1

SARS-CoV-2 NSP7 = biological target: SARS-CoV-2 NSP7
Method: as §1

SARS-CoV-2 NSP8 = biological target: SARS-CoV-2 NSP8
Method: as §1

SARS-CoV-2 NSP9 = biological target: SARS-CoV-2 NSP9
Method: as §1

SARS-CoV-2 ORF10 = biological target: SARS-CoV-2 ORF10
Method: as §1

SARS-CoV-2 ORF3A = biological target: SARS-CoV-2 ORF3A
Method: as §1

SARS-CoV-2 ORF3B = biological target: SARS-CoV-2 ORF3B
Method: as §1

SARS-CoV-2 ORF6 = biological target: SARS-CoV-2 ORF6
Method: as §1

SARS-CoV-2 ORF7A = biological target: SARS-CoV-2 ORF7A
Method: as §1

SARS-CoV-2 ORF7B = biological target: SARS-CoV-2 ORF7B
Method: as §1

SARS-CoV-2 ORF8 = biological target: SARS-CoV-2 ORF8
Method: as §1

SARS-CoV-2 ORF9B = biological target: SARS-CoV-2 ORF9B
Method: as §1

[1] = biological target: SARS-CoV-2 ORF9Bwu (the 73-codon ORF)
Method: as §1

SARS-CoV-2 S = biological target: SARS-CoV-2 S
Method: as §1

Measured: yeast fitness gain

B1: PDIA6, Q15084 (protein)
chain: MALLVLGLVSCTFFLAVNGLYSSSDDVIELTPSNFNREVIQSDSLWLVEFYAPWCGHCQRLTPEWKKAATALKDVVKVGAVDADKHHSLGGQYGVQGFPTIKIFGSNKNRPEDYQGGRTGEAIVDAALSALRQLVKDRLGGRSGGYSSGKQGRSDSSSKKDVIELTDDSFDKNVLDSEDVWMVEFYAPWCGHCKNLEPEWAAAASEVKEQTKGKVKLAAVDATVNQVLASRYGIRGFPTIKIFQKGESPVDYDGGRTRSDIVSRALDLFSDNAPPPELLEIINEDIAKRTCEEHQLCVVAVLPHILDTGAAGRNSYLEVLLKLADKYKKKMWGWLWTEAGAQSELETALGIGGFGYPAMAAINARKMKFALLKGSFSEQGINEFLRELSFGRGSTAPVGGGAFPTIVEREPWDGRDGELPVEDDIDLSDVELDDLGKDEL
inactive: SARS-CoV-2 E 0.0572 | SARS-CoV-2 M 0.0411 | SARS-CoV-2 N 0.046 | SARS-CoV-2 NSP1 = 0.0495 | SARS-CoV-2 NSP10 = -0.0155 | SARS-CoV-2 NSP12 = -0.0243 | SARS-CoV-2 NSP13 = 0.0231 | SARS-CoV-2 NSP14 = 0.083 | SARS-CoV-2 NSP15 = 0.015 | SARS-CoV-2 NSP16 = 0.0375 | SARS-CoV-2 NSP2 = -0.0538 | SARS-CoV-2 NSP4 = 0.0223 | SARS-CoV-2 NSP5 = -0.0119 | SARS-CoV-2 NSP6 = 0.00099 | SARS-CoV-2 NSP7 = 0.01 | SARS-CoV-2 NSP8 = 0.0705 | SARS-CoV-2 NSP9 = 0.0522 | SARS-CoV-2 ORF10 = 0.0252 | SARS-CoV-2 ORF3A 0.0106 | SARS-CoV-2 ORF3B 0.0216 | SARS-CoV-2 ORF6 = 0.0199 | SARS-CoV-2 ORF7A 0.0442 | SARS-CoV-2 ORF7B 0.00873 | SARS-CoV-2 ORF8 = 0.0268 | SARS-CoV-2 ORF9B 0.0182 | [1] -0.000915 | SARS-CoV-2 S -0.0667

B2: NUDT16, Q96DE0 (protein)
chain: MAGARRLELGEALALGSGWRHACHALLYAPDPGMLFGRIPLRYAILMQMRFDGRLGFPGGFVDTQDRSLEDGLNRELREELGEAAAAFRVERTDYRSSHVGSGPRVVAHFYAKRLTLEELLAVEAGATRAKDHGLEVLGLVRVPLYTLRDGVGGLPTFLENSFIGSAREQLLEALQDLGLLQSGSISGLKIPAHH
inactive: SARS-CoV-2 E 0.0632 | SARS-CoV-2 M -0.0132 | SARS-CoV-2 N 0.0532 | SARS-CoV-2 NSP1 = -0.0337 | SARS-CoV-2 NSP10 = 0.0487 | SARS-CoV-2 NSP12 = -0.00445 | SARS-CoV-2 NSP13 = 0.0427 | SARS-CoV-2 NSP14 = 0.0517 | SARS-CoV-2 NSP15 = 0.00398 | SARS-CoV-2 NSP16 = 0.0277 | SARS-CoV-2 NSP2 = -0.143 | SARS-CoV-2 NSP4 = 0.0634 | SARS-CoV-2 NSP5 = 0.0486 | SARS-CoV-2 NSP6 = -0.0222 | SARS-CoV-2 NSP7 = 0.0144 | SARS-CoV-2 NSP8 = -0.0277 | SARS-CoV-2 NSP9 = -0.156 | SARS-CoV-2 ORF10 = 0.043 | SARS-CoV-2 ORF3A 0.0209 | SARS-CoV-2 ORF3B 0.0255 | SARS-CoV-2 ORF6 = 0.0152 | SARS-CoV-2 ORF7A -0.00909 | SARS-CoV-2 ORF7B 0.033 | SARS-CoV-2 ORF8 = 0.000496 | SARS-CoV-2 ORF9B 0.00653 | [1] 0.0381 | SARS-CoV-2 S 0.0168

B3: OR10W1, Q8NGF6 (protein)
chain: MEFVFLAYPSCPELHILSFLGVSLVYGLIITGNILIVVSIHTETCLCTSMYYFLGSLSGIEICYTAVVVPHILANTLQSEKTITLLGCATQMAFFIALGSADCFLLAAMAYDRYVAICHPLQYPLLMTLTLCVHLVVASVISGLFLSLQLVAFIFSLPFCQAQGIEHFFCDVPPVMHVVCAQSHIHEQSVLVAAILAIAVPFFLITTSYTFIVAALLKIHSAAGRHRAFSTCSSHLTVVLLQYGCCAFMYLCPSSSYNPKQDRFISLVYTLGTPLLNPLIYALRNSEMKGAVGRVLTRNCLSQNS
inactive: SARS-CoV-2 E 0.137 | SARS-CoV-2 M -0.0103 | SARS-CoV-2 N -0.109 | SARS-CoV-2 NSP1 = 0.0539 | SARS-CoV-2 NSP10 = -0.00808 | SARS-CoV-2 NSP12 = 0.0326 | SARS-CoV-2 NSP13 = 0.00624 | SARS-CoV-2 NSP14 = -0.0766 | SARS-CoV-2 NSP15 = 0.0349 | SARS-CoV-2 NSP16 = -0.0146 | SARS-CoV-2 NSP2 = -0.133 | SARS-CoV-2 NSP4 = 0.0734 | SARS-CoV-2 NSP5 = 0.0486 | SARS-CoV-2 NSP6 = 0.132 | SARS-CoV-2 NSP7 = 0.0765 | SARS-CoV-2 NSP8 = -0.0298 | SARS-CoV-2 NSP9 = 0.0681 | SARS-CoV-2 ORF10 = -0.00358 | SARS-CoV-2 ORF3A -0.118 | SARS-CoV-2 ORF3B 0.0426 | SARS-CoV-2 ORF6 = 0.00746 | SARS-CoV-2 ORF7A -0.0247 | SARS-CoV-2 ORF7B 0.0997 | SARS-CoV-2 ORF8 = 0.0468 | SARS-CoV-2 ORF9B -0.00239 | [1] -0.012 | SARS-CoV-2 S -0.0391

B4: NUDT16L1, Q9BRJ7 (protein)
chain: MSTAAVPELKQISRVEAMRLGPGWSHSCHAMLYAANPGQLFGRIPMRFSVLMQMRFDGLLGFPGGFVDRRFWSLEDGLNRVLGLGLGCLRLTEADYLSSHLTEGPHRVVAHLYARQLTLEQLHAVEISAVHSRDHGLEVLGLVRVPLYTQKDRVGGFPNFLSNAFVSTAKCQLLFALKVLNMMPEEKLVEALAAATEKQKKALEKLLPASS
inactive: SARS-CoV-2 E 0.0355 | SARS-CoV-2 M 0.0572 | SARS-CoV-2 NSP1 = -0.0964 | SARS-CoV-2 NSP10 = -0.112 | SARS-CoV-2 NSP12 = -0.071 | SARS-CoV-2 NSP13 = -0.0309 | SARS-CoV-2 NSP15 = -0.0681 | SARS-CoV-2 NSP16 = -0.056 | SARS-CoV-2 NSP2 = -0.0845 | SARS-CoV-2 NSP5 = -0.0397 | SARS-CoV-2 NSP6 = -0.16 | SARS-CoV-2 NSP7 = -0.102 | SARS-CoV-2 NSP8 = -0.0821 | SARS-CoV-2 NSP9 = 0.123 | SARS-CoV-2 ORF10 = 0.0276 | SARS-CoV-2 ORF3B -0.0269 | SARS-CoV-2 ORF6 = 0.0152 | SARS-CoV-2 ORF7A -0.224 | SARS-CoV-2 ORF7B -0.172 | SARS-CoV-2 ORF8 = -0.0955 | SARS-CoV-2 ORF9B 0.0408 | [1] 0.103 | SARS-CoV-2 S -0.0606
